Measured values taken from PubChem BioAssay AID686978 (National Center for Advancing Translational Sciences (NCATS), 2013).
Out of some 420,000 compounds screened, about 64,000 (15%) were called active. Inconclusive results, whose numbers are uncertain, are shown with a selection of clear calls. Calls follow the shape of the dose curve; as a rule, active = well fitted inhibition curve with a large enough effect; inconclusive = small, poorly fitted or top-dose-only effect; inactive = flat fitted curve, though single readings scatter. No potency is given beside an inconclusive call; the fits are too rough.

Test: qHTS for Inhibitors of human tyrosyl-DNA phosphodiesterase 1 (TDP1): qHTS in cells in absence of CPT; also: nearly all actives have a fitted effect of over 55% in size
Conditions: DT40 Tdp1-/- hTDP1 cells, no CPT, ATP luminescence, 48 h; activity change, negative = growth inhibition: at 46.2 µM (top of the series) unless noted
Procedure, shortened: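 Growth of hTDP1-complemented DT40 Tdp1-knockout cells is measured by ATP luminescence after at least 48 hr compound exposure at 37 °C, with DMSO substituting for the 20 nM CPT used in the parallel screen.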
% is scaled to controls: 0 for no effect and ±100 for the full control effect; potency is read from the fitted curve at half-maximal effect; tags tell the direction and shape of the fitted curve.

Structure (SMILES)	Potency	activity change, negative = growth inhibition
N#CC(c1ccccc1)c1ccc(C(=O)c2ccc(F)cc2)cc1 (stereo unspecified)	active: 23.1 µM	
COc1cc(CNCc2cccs2)ccc1OCc1cccs1	inconclusive [inhibitor, single point]	
Cc1onc(-c2ccccc2)c1-c1ccnn1S(=O)(=O)c1ccc(Cl)cc1	inactive	
Cc1ccccc1C(=O)N1CCN(c2ccc(NC(=S)NC(=O)c3cccs3)cc2)CC1	active: 23.1 µM	
CC(C)(C)c1cc(CCC(=O)NNC(=O)c2ccco2)cc(C(C)(C)C)c1O		inconclusive: -30.8% [inhibitor]
O=S(=O)(c1ccccc1)N1CCN(Cc2ccc(Cl)cc2)CC1	inconclusive [inhibitor, single point]	
O=C(OCc1ccccc1)N1CCC2CC1c1ccc(N3CCNCC3)cc12 (stereo unspecified)	active: 7.31 µM	
O=C1NC(Cc2ccccc2)c2nc3ccc(F)cc3c(=O)n2-c2cc3ccccc3cc21 (stereo unspecified)	active: 5.17 µM	
O=c1nc(NO)ccn1C1CCCO1 (stereo unspecified)	inactive	
CC1(Oc2cccc(C#N)c2)CCN(Cc2csc3ccccc23)C1 (stereo unspecified)	inconclusive [inhibitor, single point]	
CCn1c(-c2ccc(C)cc2)n[nH]c1=S	inconclusive [inhibitor, single point]	
Cc1ccc(-c2cc(C(=O)N3CCN(C(=O)c4ccco4)CC3)[nH]n2)c(C)c1	inactive	
COc1ccc(CCNC(=O)c2cc(C)oc2C)cc1OC	inconclusive [inhibitor, single point]	
CC(=O)Nc1ccc(S(=O)(=O)N(C)c2ccc(OCCOc3ccccc3F)cc2)cc1	inconclusive [inhibitor, partial curve, poor fit]	
Cc1cccc(NS(=O)(=O)c2ccc(C)c(C(=O)NCC(c3ccccc3)N(C)C)c2)c1 (stereo unspecified)	inconclusive [inhibitor, single point]	
Cc1cc(Br)ccc1NC(=O)CSc1c2c(nc3ccccc13)CCC2	active: 11.6 µM	
C#Cc1ccc(CN2CCN(CCCc3ccccc3)C(CCO)C2)cc1 (stereo unspecified)	inconclusive [inhibitor, single point]	
O=C(C1CCC(Cn2c(=S)[nH]c3ccccc3c2=O)CC1)N1CCN(c2ccccc2)CC1 (stereo unspecified)	inconclusive [inhibitor, single point]	
CCc1ccc(NC(=O)CSc2nc(C)c(C(=O)Nc3ccccc3)c(-c3ccc(OC)c(OC)c3)c2C#N)cc1	inactive	
Nc1ccc(N2CCN(C(=O)c3cccs3)CC2)cc1	active: 14.6 µM	
Clc1ccccc1CSc1nnc(-c2ccccn2)n1Cc1ccco1	inconclusive [inhibitor, single point]	
O=C(NCCc1ccc(Cl)cc1)C1CCCN(c2ncnc3c2nc2n3CCCCC2)C1 (stereo unspecified)	inconclusive [inhibitor, single point]	
COc1ccc(NC(=O)c2sc3nc(C)nc(N4CCN(c5ccccn5)CC4)c3c2C)cc1Cl	active: 20.6 µM	
Cn1c2c(c(O)c(-c3ccccc3)c1=O)C(=O)CC(C)(C)C2	inconclusive [inhibitor, partial curve, poor fit]	

Structure (SMILES)	Potency	activity change, negative = growth inhibition
CC(=O)c1ccc(OC2(C)CCN(Cc3csc4ccccc34)C2)cc1 (stereo unspecified)	inconclusive [inhibitor, single point]	
CCOc1ccc(CNC(=O)CCc2c(C)nn(-c3ccc(N4CCCCC4)nn3)c2C)cc1	inconclusive [inhibitor, single point]	
CCOc1ccc(CCNC(=O)C2CCCN2C(=O)OCc2ccccc2)cc1OCC (stereo unspecified)	inconclusive [inhibitor, single point]	
CN(Cc1nccn1C)C(=O)c1cc(COc2ccc3ncccc3c2)on1	active: 18.4 µM	
COc1ncc2nc(CCc3ccccc3)c(=O)n(CCC#N)c2n1	inactive	
CCCNC(=O)C1(C)CCN(Cc2noc(-c3ccccc3OC)n2)C1 (stereo unspecified)	inconclusive [inhibitor, single point]	
O=C(NCCc1ccccc1)Nc1ccc(Cl)cc1	inactive	
CCN(CC(=O)NCc1cccs1)C(=O)c1ccc(-c2ccc(F)cc2)o1	inconclusive [inhibitor, single point]	
CSc1ccc(CCNC(=O)c2cc(C)nc3c2c(C)nn3-c2cccc(F)c2)cc1	inconclusive [inhibitor, single point]	
O=C(Nc1nnc(/N=C/c2ccco2)s1)c1ccc(F)cc1		inconclusive: -37.7% [inhibitor]
Cc1ccc(S(=O)(=O)N2CCCCC2)cc1NC(=O)C1COc2ccccc2O1 (stereo unspecified)	inconclusive [inhibitor, single point]	
Cc1cc(NC(=O)c2cc(-c3ccc(C)s3)nc3ccccc23)no1	inconclusive [inhibitor, partial curve, poor fit]	
Cc1ccccc1CNC(=O)C(=O)NCC1CCCN1S(=O)(=O)c1cccs1 (stereo unspecified)	inconclusive [inhibitor, partial curve, poor fit]	
Cc1ccc(S(=O)(=O)N(Cc2cc3ccccc3[nH]c2=O)c2cccc(C)c2)cc1	active: 7.31 µM	
Cc1c(C(=O)NCC2COc3ccccc3O2)oc2ccc(S(=O)(=O)N3CCOCC3)cc12 (stereo unspecified)	inconclusive [inhibitor, partial curve, poor fit]	
COc1ccc(CCC(=O)OCC(=O)NCc2ccc(OC)c(OC)c2)cc1OC	inconclusive [inhibitor, single point]	
CN(C)S(=O)(=O)c1cc(NC(=O)CNCc2ccccc2)ccc1Cl	inconclusive [inhibitor, single point]	
Clc1cc(Br)ccc1OCCCn1ccnc1	inconclusive [inhibitor, single point]	
COc1cccc(CNS(=O)(=O)c2cc3c4c(c2)CCN4C(=O)CC3)c1	inactive	
Cc1cc(NS(=O)(=O)c2ccc(Nc3nc(-c4ccc(C)c(C)c4)cs3)cc2)no1	inconclusive [inhibitor, single point]	
CC(C)(C)N(Cc1ccccc1)C(=O)c1ccc(Br)o1	inconclusive [inhibitor, single point]	
Cc1ccc(SCC(=O)NN2C(=O)c3ccccc3C2=O)cc1	inactive	
CC1CC(C)CN(CC(C)(C)NS(=O)(=O)c2ccc(Cl)cc2)C1 (stereo unspecified)	inconclusive [inhibitor, single point]	
Cc1ccc(Cn2nc(C)c(NC(=O)c3noc4c3CCCCC4)c2C)cc1	inconclusive [inhibitor, single point]	

Structure (SMILES)	Potency	activity change, negative = growth inhibition
Cc1cc2ncn(C(=O)N3CCC(C)CC3)c2cc1C	inconclusive [inhibitor, single point]	
CCOC(=O)c1c(NC(=O)C(=O)N/N=C(\C)c2ccc(OC)cc2)sc2c1CCCCC2	inconclusive [inhibitor, single point]	
Cc1ccccc1NC(=O)C1CC(=O)N(c2ccc3c4c(cccc24)CC3)C1 (stereo unspecified)	inactive	
CSc1ccc(CN2C(=O)C(F)(F)Oc3c(C(C)=O)cccc32)cc1	active: 16.4 µM	
Cc1ccc(S(=O)(=O)Nc2ccc3c(c2)OCCO3)c(C)c1NS(C)(=O)=O	active: 10.3 µM	
CCOc1ccc(-c2[nH]ncc2-c2ccc(Cl)cc2)c(O)c1	inconclusive [inhibitor, single point]	
COc1ccc(C/C(C)=N\NC(=O)c2cn(C)c3ccccc23)cc1OC	inconclusive [inhibitor, single point]	
COc1ccc(CC(=O)OCC(=O)Nc2cc(S(=O)(=O)N3CCOCC3)ccc2N2CCCC2)cc1	inactive	
CCOc1ccccc1N(CC(=O)NCC1CCCO1)C(=O)CCC(=O)Nc1ccccn1 (stereo unspecified)	inactive	
O=C(Nc1ccncc1)C1CCN(S(=O)(=O)c2ccccc2)CC1	inconclusive [inhibitor, single point]	
CNC(=O)N(C1=NCCCCC1)c1ccc(Br)cc1	inactive	
CCOCCCNC(=S)NCCCNc1nc2cc3c(cc2cc1C#N)OCO3	inactive	
Cc1cccc(OCC(=O)Nc2ccc3c(C)cc(=O)oc3c2)c1	inactive	
CCC(C)NC(=O)c1ccc(NC(=O)C2CCCO2)cc1 (stereo unspecified)	inconclusive [inhibitor, partial curve]	
Cc1[nH]c2ccccc2c1C(=O)CN1CCCCC1C (stereo unspecified)	inconclusive [inhibitor, full curve]	
O=C(c1ccc(Br)o1)N1CCN(c2ccc3nnc(-c4ccc(F)cc4)n3n2)CC1	active: 18.4 µM	
CCN(CC)CCCNc1nc(-c2ccccc2)nc2ccccc12	inconclusive [inhibitor, partial curve]	
Cc1c(C(=O)N2CCCCCC2)c(S(=O)(=O)NCc2ccccc2)c(C)n1C	inactive	
Cc1ccc(C)c(Nc2nc(NCc3ccco3)nc3nccnc23)c1	inconclusive [inhibitor, single point]	
CCn1c(=O)c(CCC(=O)N2CCN(c3ccccn3)CC2)c(C)c2c(C)nn(-c3cccc(C)c3)c21	inconclusive [inhibitor, full curve, poor fit]	
COc1ccc(C(C(=O)NC2CCCC2)N(C(=O)c2ccoc2C)c2ccc(C)cc2)cc1 (stereo unspecified)	active: 16.4 µM	
Cc1nnc2c3ccccc3c(-c3ccc(O)cc3)nn12	inconclusive [inhibitor, single point]	
COc1ccc(N2C(=O)CCC(C(=O)N(C)C3CCCCC3)C2c2ccc(OC)c(OC)c2)cc1 (stereo unspecified)	inactive	
